# Out of some 150,000 compounds screened, about 540 (0.36%) showed an effect of 50% or more. This is one part of the list.
# Test system: Plasmodium falciparum
# Assay: Primary screen in NF54 nanoGlo assay, in single point, at 2uM, 72h; a lower Z score goes with more inhibition
# Assay type: functional, Erythrocyte
# Settings: timepoint 72 hour
SMILES,% Inhibition,Z score
c1cncc(-c2nc3nccc(-c4ccsc4)n3n2)c1,-11%,1.41
O[C@@H]1C[C@H]2CN(c3ccnc4c(C(F)(F)F)cccc34)C[C@H]2C[C@@H]1O,-10%,1.78
O=C(NCc1cc(-c2ccccc2)n[nH]1)[C@@H]1CCC[C@H](O)C1,-7%,0.68
CCCS(=O)(=O)NCC1CCN(C(C)C)CC1,-1%,0.24
CCc1oc2ccccc2c1C(=O)N1CCC[C@H]1CO,-15%,2.3
Cc1cnc(CCNC(=O)c2ccoc2)n1C(C)C,-5%,0.93
O=C(c1nccc2ccccc12)N1CCc2cc(Br)ccc21,-1%,0.11
O=C(C[C@H]1CCCCO1)Nc1ncc(Oc2ccccc2)cn1,-5%,1.08
Cc1nc[nH]c1-c1nccn1CCc1cccs1,-15%,2.71
Cc1cc(C(=O)N2Cc3cnn(CCO)c3C2)c2ccc(C)c(C)c2n1,8%,-1.61
CN1C(=O)[C@]2(NC(=O)c3ccccc3O2)c2ccccc21,-11%,1.48
Cc1cccc(-c2nsc3c(=O)n(CC(=O)Nc4ccc5c(c4)OCCO5)cnc23)c1,-11%,1.83
O=C(NCc1cccc(F)c1)[C@H]1CCCN(c2nnc3ccc(Cl)cn23)C1,-10%,1.09
CCn1c(Cn2cnn(C)c2=O)nc2cc(S(=O)(=O)N(C)C)ccc21,-2%,0.38
CCn1nc(C)c2ccn(CC(=O)NCc3ccccn3)c(=O)c21,-14%,1.38
O=C(N[C@H]1CCN(Cc2ccccc2)C1)N1CCCCCC1,-2%,0.32
COc1cc(OC)cc(C(=O)Nc2cnc(N3CCCCC3)c(C)c2)c1,36%,-0.78
CC(C)(C)c1ccc(CCC(=O)N2CCC[C@H](c3nnc4ccccn34)C2)cc1,-3%,0.61
O=C(c1cc(/C=C/C2CCCCC2)c[nH]1)N1CCOCC1,8%,-1.3
Cn1nc(-c2nc(C3CCOCC3)no2)c2c1CN(C(=O)Cc1cccnc1)C2,6%,-0.93
Cn1cc(CCCNC(=O)c2ccccc2C#N)cn1,-13%,2.43
COCC(=O)Nc1cc(C(=O)NC2CCCCCC2)c2c(c1)ncn2Cc1ccc(F)cc1,-4%,0.75
O=C(c1cccs1)N1CCC[C@H](c2nnn[nH]2)C1,10%,-1.49
CC1CC(C)(C)CC2(C1)OCC(Cn1cncn1)O2 (stereo not drawn),-10%,1.08
CC[C@@H](CNC(=O)C1(C)COC1)N1CCOCC1,1%,-0.22
Cc1nc(-c2ccccc2)n(CN2CCOC(C)(C)C2)n1,-10%,1.84
O=C(CC[C@H]1CCOC1)Nc1c(O)cc(Br)cc1Cl,3%,-0.66

SMILES,% Inhibition,Z score
Cc1cc(C2CCC2)nc(-c2ccccc2C#N)n1,-10%,1.93
O=C(CCOC1CCOCC1)NCC1CN(C(=O)c2ccccc2)C2CCN1C2 (stereo not drawn),3%,-0.3
CCN(CC)C(=O)N1CC[C@H](CCOc2ccccc2)C1,-2%,0.26
Cc1cc(O)ccc1C(=O)N1C[C@H]2CCC[C@@H](C1)N(C)C2,-11%,1.51
COc1ccc(C(=O)N2CCN(c3c(C)n(-c4ccccc4)c(=O)n(C)c3=O)CC2)cc1,-4%,0.74
Cc1cc(C(=O)Nc2ccc(Cl)cc2)n(CC(=O)Nc2ccc(F)cc2)n1,-8%,1.2
COC(=O)c1n[nH]c2ccc(NC(=O)c3ccccc3OCC(=O)Nc3ccccc3F)cc12,0%,-0.02
Cc1cccc(NC(=O)CN(CC(=O)Nc2cccc(C)c2C)Cc2ccco2)c1C,13%,-2.25
CCCc1nn(-c2cccc(F)c2)c(N2CCN(CC)CC2)c1CN(CCC)Cc1sccc1C,-3%,0.25
CC(C)(C)c1noc(OCc2cnns2)n1,1%,-0.07
Cc1ccccc1C(=O)N1CCC2(CC1)CCC(O)(CN1CCN(C)CC1)CC2,-10%,1.29
O=C(Cn1c(-c2nnco2)cc2ccccc21)NC1CCCC1,0%,-0.04
N[C@H]1CC[C@@H](n2cc(-c3ncnn3-c3ccc(F)cc3F)nn2)CC1,3%,-0.63
O=C(O)[C@@H]1Cc2nc[nH]c2CN1Cc1ccc2cccc(Cl)c2n1,-4%,0.69
Cc1cc(C)cc(NC(=O)NC(C)(C)C)c1,-1%,0.18
CCCN(Cc1cnn(C)c1)C(=O)NCc1csc(C(C)(C)C)n1,-9%,1.3
COc1ccc(-c2c[nH]c([C@@H]3COCCN3C3CCC3)n2)cc1,10%,-1.12
COc1cccc(NC(=O)N2CCc3nc(N4CCN(C)CC4)nc(Oc4cccc(OC)c4)c3C2)c1,4%,-0.79
Nc1ccc(N(c2ccccc2)c2ccc(N)cc2)cc1,0%,-0.03
CN(Cc1ccc2c(c1)OCO2)C(=O)c1cc2c(s1)CCCCCC2,-5%,0.66
NC(=O)c1ccc(N2CCc3ccccc3CC2)nn1,-14%,1.6
COC1CCC(C)(CNC(=O)N2CCC[C@H](OC)CC2)CC1 (stereo partly drawn),7%,-1.33
Cc1c(C)n(C[C@@H](O)CNC2CCCC2)c2c(Cl)cccc12,48%,-6.21
CC(C)c1nnc(CN=C(N)N2CCC[C@H](C)C2)s1,2%,-0.32
Cc1nnsc1CN(C)Cc1cc(Cl)ccc1OCC(=O)O,-4%,0.61
CCc1ccc(C(=O)Nc2nnc([C@H]3CC(=O)N(c4ccc(OC(F)(F)F)cc4)C3)o2)cc1,-19%,3.66
CC1(C)[C@H](Cc2cc(-c3ccccc3)on2)C[C@@H]1NS(=O)(=O)c1ccccc1,3%,-0.49
